The list shows a part of the results. The full chains were built here from the parent and the listed change. Values near 0.05 are background.
B1: TEV protease; numbered along this chain (parent)
chain: MGESLFKGPRDYNPISSSICHLTNESDGHTTSLYGIGFGPFIITNKHLFRRNNGTLVVQSLHGVFKVKDTTTLQQHLVDGRDMIIIRMPKDFPPFPQKLKFREPQREERICLVTTNFQTKSMSSMVSDTSCTFPSGDGIFWKHWIQTKDGQCGSPLVSTRDGFIVGIHSASNFTNTNNYFTSVPKNFMELLTNQEAQQWVSGWRLNADSVLWGGHKVFMVKPEEPFQPVKEATQL

Variants of: B1
Assay: raw area under fraction-flipped curve 0-4 h after induction (AUC4h, not background-subtracted), DNA-recorder readout of cleavage of the substrate (dimensionless); higher = more cleavage of the substrate by the protease variant
Conditions: temperature: 34 °C; time window: 0-4 h after rhamnose induction
Description: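 In vivo DNA recorder in E. coli TOP10(DE3) ΔrhaA at 34 °C. Each TEVp single-site mutant (parent TEVp 0) is paired with a single-site variant of the 7-mer TEVs (canonical ENLYFQ|S). The substrate sits between flexible linkers in a Bxb1-sfGFP-TEVs-SsrA fusion, so cleavage stabilises Bxb1 and speeds flipping of a recombination array, read by NGS. The value is the raw area under the fraction-flipped curve over 0-4 h after rhamnose induction (AUC4h), with ≥20 reads per time point. It is not background-subtracted; inactive controls average about 0.047.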
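Also: Bxb1 expression induced with 0.2% (w/v) L-rhamnose at OD600 near 0.5, cultures sampled hourly, flipped fraction per protease–substrate barcode pair counted by paired-end Illumina sequencing.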

Variant | area with substrate EALYFQS | area with substrate ECLYFQS | area with substrate EELYFQS | area with substrate EGLYFQS | area with substrate EHLYFQS | area with substrate EKLYFQS | area with substrate ELLYFQS | area with substrate EMLYFQS | area with substrate EPLYFQS | area with substrate EQLYFQS | area with substrate ERLYFQS | area with substrate ESLYFQS | area with substrate EWLYFQS | area with substrate EYLYFQS | area with substrate EDLYFQS | area with substrate EILYFQS | area with substrate ETLYFQS | area with substrate EFLYFQS | area with substrate EVLYFQS
F226L | 0.113 | 0.087 | 0.1 | 0.0828 | 0.128 | 0.113 | 0.11 | 0.116 | 0.104 | 0.146 | 0.108 | 0.104 | 0.102 | 0.131 | – | – | – | – | –
L5I | – | 0.156 | 0.153 | – | – | 0.158 | – | – | – | – | 0.107 | – | – | 0.0844 | 0.171 | 0.111 | 0.191 | – | –
K216Y | 0.12 | 0.101 | 0.0925 | 0.0883 | – | 0.0863 | 0.106 | 0.0978 | – | 0.0919 | – | 0.0897 | – | – | 0.0975 | – | 0.0976 | 0.107 | 0.0807
W212H | 0.0962 | – | – | – | – | 0.0888 | – | – | – | – | 0.0703 | 0.0065 | – | 0.0512 | 0.0994 | 0.0865 | 0.0774 | – | –
W212T | 0.0926 | 0.0882 | – | 0.0755 | – | 0.0842 | – | – | 0.118 | 0.0953 | 0.0792 | – | 0.108 | – | 0.112 | 0.0524 | – | – | –
W212I | 0.141 | 0.132 | – | 0.0783 | – | 0.155 | – | 0.129 | 0.146 | 0.142 | 0.141 | 0.139 | 0.133 | – | – | 0.148 | 0.168 | – | 0.114
N24I | – | 0.0612 | – | 0.0911 | – | 0.0648 | 0.0892 | 0.0748 | 0.0904 | – | 0.0672 | 0.0739 | 0.0887 | – | 0.0789 | 0.0811 | 0.102 | 0.0916 | 0.0239
T23F | – | 0.0908 | 0.131 | 0.0729 | 0.102 | 0.0888 | 0.0773 | 0.0991 | – | 0.107 | 0.0868 | 0.09 | 0.0789 | 0.118 | 0.113 | 0.0794 | – | – | 0.0952
N193H | 0.105 | – | 0.119 | – | – | 0.0807 | 0.0988 | 0.0969 | – | – | 0.0879 | – | – | 0.067 | 0.213 | – | – | – | –
S201F | 0.0959 | 0.0899 | 0.0922 | – | – | 0.0786 | – | – | – | – | – | – | – | – | – | 0.0768 | – | – | –
K221P | 0.105 | – | – | – | 0.113 | – | 0.105 | 0.0915 | 0.095 | 0.0064 | 0.0985 | 0.116 | – | – | 0.13 | 0.114 | – | – | 0.113
S209M | 0.118 | 0.088 | 0.108 | – | – | 0.102 | 0.0946 | 0.148 | 0.103 | 0.123 | – | – | 0.0961 | 0.116 | – | – | – | – | 0.11
V220H | 0.124 | 0.0953 | 0.143 | 0.105 | 0.125 | 0.102 | 0.0835 | 0.124 | 0.181 | 0.104 | 0.13 | 0.108 | 0.0967 | – | 0.129 | 0.124 | 0.105 | – | 0.104
G214H | 0.132 | 0.0963 | – | – | – | 0.0735 | 0.0874 | 0.083 | 0.136 | 0.101 | 0.0721 | – | – | 0.0912 | 0.103 | 0.0858 | – | – | –
G214I | 0.0688 | 0.0816 | – | 0.0881 | – | 0.0579 | – | 0.0889 | – | – | – | – | – | 0.0667 | 0.0804 | 0.0663 | – | – | 0.072
P9T | – | 0.0567 | – | – | 0.0579 | 0.137 | 0.0786 | 0.113 | – | 0.0714 | 0.111 | 0.158 | – | – | – | 0.0779 | – | 0.0743 | –

Variant | area with substrate EALYFQS | area with substrate ECLYFQS | area with substrate EELYFQS | area with substrate EGLYFQS | area with substrate EHLYFQS | area with substrate EKLYFQS | area with substrate ELLYFQS | area with substrate EMLYFQS | area with substrate EPLYFQS | area with substrate EQLYFQS | area with substrate ERLYFQS | area with substrate ESLYFQS | area with substrate EWLYFQS | area with substrate EYLYFQS | area with substrate EDLYFQS | area with substrate EILYFQS | area with substrate ETLYFQS | area with substrate EFLYFQS | area with substrate EVLYFQS
P9D | – | 0.107 | – | – | 0.128 | 0.112 | – | – | 0.128 | – | – | 0.0994 | – | 0.0995 | 0.0793 | – | – | – | 0.0547
G2P | – | 0.125 | 0.129 | 0.109 | 0.13 | 0.123 | 0.0935 | 0.139 | 0.137 | – | 0.142 | 0.178 | – | 0.161 | 0.101 | 0.139 | 0.123 | – | 0.131
L211E | 0.119 | 0.0768 | – | – | 0.152 | 0.151 | – | – | 0.127 | 0.15 | 0.109 | 0.116 | 0.126 | 0.128 | 0.159 | – | – | 0.114 | 0.117
L211G | 0.109 | 0.0954 | 0.118 | – | 0.101 | – | 0.0812 | – | – | – | 0.0846 | – | 0.0833 | 0.0952 | – | – | 0.116 | 0.101 | –
N206M | 0.196 | – | – | – | – | – | – | 0.165 | – | 0.124 | – | 0.127 | 0.0999 | – | 0.136 | – | – | – | –
N206D | 0.142 | 0.129 | – | 0.141 | – | 0.116 | – | 0.13 | – | 0.137 | 0.12 | 0.125 | 0.135 | 0.129 | 0.16 | 0.0967 | 0.127 | – | 0.0963
L235W | 0.184 | 0.0986 | – | 0.103 | 0.0818 | – | – | 0.0901 | 0.0934 | 0.0972 | – | 0.0866 | – | 0.0904 | – | – | – | – | 0.086
L235D | 0.131 | – | – | – | – | 0.135 | – | 0.0922 | – | 0.102 | – | 0.109 | – | – | – | 0.0714 | – | – | –
E3K | – | 0.128 | – | 0.0698 | 0.156 | – | 0.0706 | 0.141 | – | – | 0.117 | 0.129 | – | – | – | 0.122 | 0.165 | – | 0.12
F218Q | 0.098 | – | 0.112 | 0.0534 | 0.0843 | – | – | 0.105 | 0.0908 | 0.088 | 0.0789 | 0.0847 | 0.0803 | 0.0799 | – | 0.0691 | 0.12 | – | 0.0791
F218C | 0.124 | 0.113 | – | – | 0.123 | – | – | 0.0946 | 0.135 | – | 0.0975 | 0.11 | 0.132 | – | 0.139 | – | – | – | –
P225Y | 0.0907 | 0.011 | 0.145 | 0.0936 | – | – | – | 0.057 | – | – | 0.0876 | 0.095 | 0.0797 | 0.0933 | – | 0.0754 | – | – | 0.11
E231S | 0.107 | – | 0.105 | – | – | 0.124 | 0.0896 | – | 0.119 | – | – | 0.105 | 0.109 | – | 0.14 | 0.0887 | – | – | –
W203H | 0.0971 | 0.0639 | – | 0.0688 | 0.0586 | – | 0.06 | 0.061 | – | 0.0646 | 0.0667 | 0.075 | 0.0701 | – | 0.105 | 0.0568 | 0.0747 | – | –
W203T | 0.0588 | – | 0.0585 | 0.046 | 0.0664 | 0.0574 | 0.0685 | 0.0729 | 0.072 | 0.0884 | 0.0623 | 0.0674 | – | – | 0.0706 | 0.0619 | – | 0.0664 | 0.0635

— the supplement of paper PMC12217912
